Measurements: PubChem BioAssay AID686979 (National Center for Advancing Translational Sciences (NCATS), 2013)
Where “and” joins values, the source holds several entries; their conditions need not be identical. Identical values can stand only once. In all, about 420,000 compounds went through this assay and about 50,000 (12%) were called active. The inconclusive results got no clear call from the source; some entries with a clear call stand among them for comparison. Calls follow the shape of the dose curve; as a rule, active = well fitted inhibition curve with a large enough effect; inconclusive = small, poorly fitted or top-dose-only effect; inactive = flat fitted curve, though single readings scatter. Potencies beside an inconclusive call are fits to weak or partial responses and may not hold up.
% is scaled to controls: 0 for no effect and ±100 for the full control effect; potency is read from the fitted curve at half-maximal effect; tags tell the direction and shape of the fitted curve.

Assay: qHTS for Inhibitors of human tyrosyl-DNA phosphodiesterase 1 (TDP1): qHTS in cells in presence of CPT; also: nearly all actives have a fitted effect of over 55% in size
Conditions: chicken DT40 Tdp1-/-;hTDP1 cells + 20 nM CPT, ATP luminescence, 48 h; activity change, negative = growth inhibition: at 46.2 µM (top of the series) unless noted
Method in brief: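 Chicken DT40 Tdp1-/- cells complemented with human TDP1, 400 cells/well, exposed to compounds plus 20 nM camptothecin for at least 48 h at 37 C; viability read as ATP content by CellTiter-Glo luminescence.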
In the case of `Cc1occc1C(=O)NNC(=O)COc1ccc(Br)cc1Br`, the “activity change, negative = growth inhibition” value is reported as inactive: -8.1%.
With `Cc1ccc2nc(NC(=O)C3CCCN(S(=O)(=O)c4cccnc4)C3)sc2c1` (centres undefined) the Potency was active: 23.1 µM.
With `O=C(C[C@H]1C/C=C\CC[C@H](Cc2ccc(F)cc2)C(=O)OC[C@@H](Cc2c[nH]c3ccccc23)NC1=O)NCCO` the Potency was inconclusive: 20.6 µM [inhibitor, single point].
For `Cc1ccc(NC(=O)COC(=O)C2CC3CCCC(C2)C3=O)c([N+](=O)[O-])c1` (centres undefined), the “activity change, negative = growth inhibition” value was inactive: -2.05%.
In the case of `CNC(C)C#Cc1c(-c2cc(OC)c(OC)c(OC)c2)noc1C` (centres undefined), the Potency is reported as inconclusive: 28.2 µM [inhibitor, single point] and inconclusive: 29.1 µM [inhibitor, single point].
For `CCOc1ccc(C2C(C(=O)c3cccs3)=C(O)C(=O)N2Cc2cccnc2)cc1` (centres undefined), the Potency was inconclusive: 0.206 µM [inhibitor, full curve].
With `O=C(CNS(=O)(=O)c1c(Cl)cccc1Cl)OCC(=O)N1CCN(c2ccccc2)CC1` the “activity change, negative = growth inhibition” value was inactive: 7.84%.
For `COc1ccc(-n2nc(C(=O)N(C)c3cc(Cl)ccc3OC)c3c4ccccc4n(C)c3c2=O)cc1`, the Potency was inconclusive: 25.9 µM [inhibitor, single point].
For `O=C(CCCCCn1c(=S)[nH]c2ccc(N3CCOCC3)cc2c1=O)NCc1ccccc1Cl`, the Potency was inconclusive: 29.1 µM [inhibitor, single point].
In the case of `CC(=O)NC(=S)Nc1ccccc1N1CCCCC1`, the “activity change, negative = growth inhibition” value is reported as inactive: -6.15%.
For `CCN(CC)CCNC(=O)COc1ccc(OC)cc1`, the Potency was “inactive”.
With `COc1ccc(Cn2c(CO)cnc2SCc2ccc(F)cc2)cc1` the Potency was inconclusive: 16.4 µM [inhibitor, partial curve, poor fit].
With `C=CCOC(=O)C(C#N)c1nc2ccccc2nc1N1CCN(Cc2ccc3c(c2)OCO3)CC1` (centres undefined) the Potency was inconclusive: 29.1 µM [inhibitor, single point].
With `CCOc1ccc2nc(-c3ccccc3)nc(SCC(=O)OC)c2c1` the “activity change, negative = growth inhibition” value was inactive: 12.5%.
With `O=C(/C=C/c1ccccc1)OCCN=C1NS(=O)(=O)c2ccccc21` the Potency was inconclusive: 29.1 µM [inhibitor, single point].
For `CC(=O)N(C1=C(N)C(=O)c2ccccc2C1=O)C(C)C`, the Potency was inconclusive: 29.1 µM [inhibitor, single point].
For `N#CC1=C2SCN(C3CCCCC3)CN2C(=O)CC1c1c(F)cccc1Cl` (centres undefined), the Potency was inconclusive: 29.1 µM [inhibitor, single point].
For `Cc1nnc(NC(=O)CN2CCN(Cc3ccccc3)CC2)s1`, the “activity change, negative = growth inhibition” value was inactive: -18.8%.
For `COc1ccc(/C=C/c2c(-c3ccc(OC)cc3)sc3ccc(N4CCOCC4)cc23)cc1`, the “activity change, negative = growth inhibition” value was inactive: -21.3%.
In the case of `CCOC(=O)CN1C(=O)C(Sc2n[nH]c(-c3ccc(O)cc3)n2)CCc2ccccc21` (centres undefined), the Potency is reported as inconclusive: 29.1 µM [inhibitor, single point].
In the case of `Cc1nn(CCCC(=O)NCc2ccc(OC(C)C)cc2)c(=O)c2c1sc1ccccc12`, the Potency is reported as inconclusive: 18.4 µM [inhibitor, single point].
With `COc1cc(/C=N/NC(=O)c2ccncc2)ccc1OCc1cnc(Cl)s1` the Potency was inconclusive: 18.4 µM [inhibitor, single point].
With `COc1ccccc1CCn1c(N)c(C#N)c2nc3ccccc3nc21` the Potency was inconclusive: 29.1 µM [inhibitor, single point].
In the case of `Cc1ccc(Cc2nc3ccccc3nc2SCC(=O)N2CCN(c3ccccc3)CC2)cc1`, the “activity change, negative = growth inhibition” value is reported as inactive: -16.3%.
For `COc1ccc2c(c1OC)C(=O)N1c3cccc(Cl)c3C(=O)OC21` (centres undefined), the “activity change, negative = growth inhibition” value was inactive: -17.6%.
In the case of `Cc1ccc(NC(=O)CC2Nc3cc(C)c(C)cc3NC2=O)c(C)c1` (centres undefined), the Potency is reported as inconclusive: 29.1 µM [inhibitor, single point].
With `Cc1sc2nc(SCCN(C)C)n(-c3ccccc3)c(=O)c2c1-c1ccc(F)cc1` the Potency was active: 18.4 µM.
For `O=C(O)CCCCN1C(=O)/C(=C\c2ccc(OCc3ccccc3)c(OCc3ccccc3)c2)SC1=S`, the “activity change, negative = growth inhibition” value was inactive: -90.9%.
With `C(=N\c1nccs1)/Nc1nccs1` the “activity change, negative = growth inhibition” value was inactive: -13.4%.
In the case of `OC(c1ccccc1)(c1ccccc1)C1CCN(CCCOc2ccccc2Cl)CC1`, the Potency is reported as active: 20.6 µM.
In the case of `Cc1cccc(N(Cc2cc3ccccc3[nH]c2=O)C(=O)c2cccc(Cl)c2)c1`, the Potency is reported as active: 23.1 µM.
With `CC(=O)Nc1cccc(C(=O)NC(C)c2ccc(S(N)(=O)=O)cc2)c1` (centres undefined) the “activity change, negative = growth inhibition” value was inactive: 3.34%.
For `CCN1CCN(c2nc3ccccc3nc2C(C#N)C(=O)OC2CCCCC2)CC1` (centres undefined), the Potency was active: 23.1 µM.
For `Cc1cccc(CCNC(=O)c2ccc(CSCc3cccc(Cl)c3)o2)c1`, the Potency was inconclusive: 29.1 µM [inhibitor, single point].
In the case of `NC(=O)c1nc(-c2ccco2)nc2c1[nH]c(=O)n2-c1ccc(Cl)c(Cl)c1`, the “activity change, negative = growth inhibition” value is reported as inactive: -15%.
With `O=c1cc(CCl)nc2sc3ccccc3n12` the Potency was inconclusive: 29.1 µM [inhibitor, single point].
With `CCc1nc(Nc2ccc(NC(C)=O)cc2)c2oc3ccccc3c2n1` the Potency was inconclusive: 16.4 µM [inhibitor, single point].
In the case of `COc1ccc(Oc2c(Cl)cnn(-c3ccc(F)cc3)c2=O)cc1`, the Potency is reported as inconclusive: 29.1 µM [inhibitor, single point].
For `O=[N+]([O-])c1cccc(/C=N/Nc2nc(N3CCCCC3)nc(N3CCCCC3)n2)c1`, the Potency was inconclusive: 29.1 µM [inhibitor, single point].
In the case of `Cc1ccc(-c2cc(-c3c(C)nn(C)c(=O)c3N)[nH]n2)cc1`, the Potency is reported as active: 16.4 µM.
With `CN(Cc1ccccc1)C(=O)c1cccc(NC(=O)Cc2cccc(NC(=O)C3CCN(C(=O)C4CCC4)CC3)c2)c1` the Potency was inconclusive: 29.1 µM [inhibitor, single point].
In the case of `CN1C2CCC1CC(NC(=O)c1cc(Cl)cc3[nH]cnc13)C2` (centres undefined), the “activity change, negative = growth inhibition” value is reported as inactive: -13.7%.
In the case of `COc1ccc(-c2noc(N3CCC(C(=O)N(C)c4ccccc4)CC3)n2)cc1`, the Potency is reported as inconclusive: 14.6 µM [inhibitor, single point].
With `COc1ccccc1-n1c(=S)[nH]c2c(sc(=S)n2-c2ccc(C)cc2C)c1=O` the Potency was inconclusive: 11.6 µM [inhibitor, partial curve].
In the case of `CCc1nc2ccc(C(=O)Nc3cc(-c4ccccc4)ccc3OC)cn2c1N(C)Cc1nccs1`, the Potency is reported as active: 13 µM.
In the case of `CCn1c2ccc(Cl)cc2c2nc3ccccc3nc21`, the “activity change, negative = growth inhibition” value is reported as inactive: -25.4%.
With `CCOc1nc(NCCN2CCOCC2)nc(Nc2ccc(C)cc2)n1` the “activity change, negative = growth inhibition” value was inactive: -12.3%.
With `COc1ccccc1Nc1nc(-c2sc(N)nc2C)cs1` the “activity change, negative = growth inhibition” value was inactive: -15%.
For `O=C(c1ccco1)N1CCN(Cc2ccc(F)cc2)CC1`, the “activity change, negative = growth inhibition” value was inactive: -11.2%.
In the case of `O=C(C(Cc1ccccc1)n1cccc1)N1CCc2ccccc21` (centres undefined), the Potency is reported as inconclusive: 14.6 µM [inhibitor, single point].
For `COc1cc(-c2cnc3c(NC=O)cc(-c4ccccc4Cl)cn23)cc(OC)c1OC`, the Potency was active: 0.82 µM.
For `CCCN1CCN(c2cc3c(cc2F)c(=O)c(S(=O)(=O)c2ccc(CC)cc2)cn3CC)CC1`, the Potency was inconclusive: 20.6 µM [inhibitor, single point].
In the case of `CCOC(=O)C1(Cc2cccc(Cl)c2)CCCN(C(=O)C2CC2)C1` (centres undefined), the Potency is reported as inconclusive: 25.9 µM [inhibitor, single point].
With `COc1ccc(NS(=O)(=O)c2ccc(N3CCCC3)c(NC(=S)Nc3cccc(C)c3C)c2)cc1` the Potency was active: 11.6 µM.
For `C/C=C/c1ccc(OCC(O)CNCCc2ccc(OC)cc2)c(OC)c1` (centres undefined), the Potency was inconclusive: 18.4 µM [inhibitor, single point].
For `C=C1CCC[C@]2(C)C[C@H]3OC(=O)C(CN4CCOCC4)[C@H]3C[C@@H]12` (some centres undefined), the Potency was inconclusive: 29.1 µM [inhibitor, single point].
With `Cc1ccc(NC(=O)CN2C(=O)NC3(CCCC3)C2=O)c(Cl)c1` the activity change, negative = growth inhibition was inconclusive: -29.8% [inhibitor].
In the case of `CSc1ccc(C(=O)C2CCCN(C(=O)c3cc(C)n(C)n3)C2)cc1` (centres undefined), the Potency is reported as inconclusive: 14.6 µM [inhibitor, partial curve, poor fit].
In the case of `CCCCC(NC(=O)CCc1c(C)c2cc3c4c(oc3c(C)c2oc1=O)CCCC4)C(=O)O` (centres undefined), the “activity change, negative = growth inhibition” value is reported as inactive: 1.63%.
With `Cc1cccc(C2Nc3ccccc3C(=O)N2CCc2ccccc2)n1` (centres undefined) the Potency was inconclusive: 4.61 µM [inhibitor, partial curve, poor fit].
With `OCC1(CCc2ccccc2)CCCN(CCCc2ccccc2)C1` (centres undefined) the Potency was inconclusive: 29.1 µM [inhibitor, single point].
With `COc1cccc(C(=O)N2CCN(C3CCC(c4ccccc4)CC3)CC2)c1` (centres undefined) the Potency was inconclusive: 29.1 µM [inhibitor, single point].
With `Cc1ccc(Cn2ccsc2=NC(=O)COC(=O)c2ccc(NC(=O)CC#N)cc2)cc1` the Potency was inconclusive: 18.4 µM [inhibitor, single point].
For `C/C(=C1/SC(N2CCCC2)=NC1=O)c1ccc(Br)cc1`, the Potency was inconclusive: 11.6 µM [inhibitor, partial curve, poor fit].
For `Cc1ccc(-c2cn(-c3ccccc3)c(SCC(=O)NC3CCS(=O)(=O)C3)n2)cc1C` (centres undefined), the Potency was inconclusive: 29.1 µM [inhibitor, single point].
In the case of `CCOC(=O)C1(CCOc2ccccc2)CCN(Cc2cccn2-c2cccnc2)CC1`, the Potency is reported as inconclusive: 29.1 µM [inhibitor, single point].
With `COc1ccc(CO/N=C/c2c(C)[nH]c(=O)[nH]c2=O)cc1` the Potency was inconclusive: 29.1 µM [inhibitor, single point].
For `Cc1ccc(S(=O)(=O)N2CCN(C(=O)CCOc3cc(C)ccc3C)CC2)cc1`, the Potency was inconclusive: 23.1 µM [inhibitor, partial curve].
In the case of `CC(O)COCC1OC2OC3C(COCC(C)O)OC(OC4C(COCC(C)O)OC(OC5C(COCC(C)O)OC(OC6C(COCC(C)O)OC(OC7C(COCC(C)O)OC(OC8C(COCC(C)O)OC(OC1C(OCC(C)O)C2OCC(C)O)C(OCC(C)O)C8OCC(C)O)C(OCC(C)O)C7OCC(C)O)C(OCC(C)O)C6OCC(C)O)C(OCC(C)O)C5OCC(C)O)C(OCC(C)O)C4OCC(C)O)C(OCC(C)O)C3OCC(C)O` (centres undefined), the “activity change, negative = growth inhibition” value is reported as inactive: 2.23%.
